Results on 167 variants are retold here after the RNAGym collection of RNA variant scans (doi:10.7554/elife.90254).

Read counts are not given, so values of variants with three or more changes are uncertain.

Sequences and labels used below:
B1: LINE1-mini (parent)
chain: GGCAGAGCUCAACACAGCGUGGCAAAGUGGCUGUGGCUAGACUGCC

Variants of B1 are the subject of the data set. The data set can be described thus: self-cleavage, relative activity (ratio to wild type); higher = more cleavage; in vitro, sequencing; the parent is a self-cleaving ribozyme.
Regarding A14G U32C G36U G40U, the self-cleavage stood at 0.11.
The result for C15A A16C U32A reads 0.03; that for A14U G27A G35A C37A, 0.09; that for C13U G21A G29C G36A C42U, 0.57.
To A14U G29A G35A C37U belongs 0.03.
In the case of C13U A14G A24C, the self-cleavage was 0.11.
Regarding A14G G29U C42G, the self-cleavage worked out at 0.05.
With A14G G19C U43A, the self-cleavage was 0.07.
To A14C G35C A41G C42A belongs 0.01.
To A14U G22A A24C G27U C42A belongs 0.03.
Consider C13U G17U G35A, for which the self-cleavage stood at 0.02.
The result for C15A A16G G19C C31U A39C reads 0.01.
To C15A A24U U34G belongs 0.01; to C13U A16C G40C, 0.04; to C13U C45A C46A, 0.08.
To A14G C23G G35A belongs 0.22; to C15A A39C C45G, 0.05; to A14C G19U C37G, 0.16.
C13U A14U G19A: the self-cleavage was 0.08.
To A14C C15G U34C G40C belongs 0.02; to C13U A25G G36U C46A, 0.05.
Take A14G A24U A25G C42A: the self-cleavage came to 0.17.
To C13U G35A C42G belongs 0.2; to C13U U32G G35U, 0.01.
The result for C13U C18U A24U U32G reads 0.04.
The result for C13U C18U G27A reads 0.17.
Regarding C13U G40A C42A, the self-cleavage came out at 0.06.
Regarding A14G U38A C45G, the self-cleavage is 0.02.
The result for A14U G27U G29A reads 0.39; that for C13U C18U U20G C23A A24G G29C, 0.02; that for C13U A26U C46U, 0.09.
To A14C G29C G30C U34G belongs 0.1; to A14U U20A U32G G36U G44U, 0.03.
In the case of A14U G21A C23U A39C C42A, the self-cleavage came to 0.1.
The result for A14C G17C G21U G22U G29U U32G G35A reads 0.05; that for C13U G29U C45U, 0.17.
The result for A14U A41G C42U C46U reads 0.45.
The result for A14G G21A C23G U32A reads 0.02; that for A14U A24G G35A C42U, 0.16.
Regarding A14G G22A A25C C31G, the self-cleavage is 0.09.
To C13U A16U G19U U28G belongs 0.09; to A14U G19C G21C A24U G29U G30C U43A, 0.02; to C13G G30A U34G, 0.
For A14G U20C G30A, the self-cleavage was 0.35.
The result for A14U G35A U38A G40A reads 0.01; that for A14G G21U A26C G44C C45U, 0.02.
To A14G G17U A24C U32G G36U belongs 0.09; to A14C U20A G33U, 0.01; to C13U G29A C42G, 0.03.
The result for A14G G19A G35C reads 0.1.
For C13U C37U U43C G44C, the self-cleavage came to 0.04.
To A14U G21A A24U G40U belongs 0.06; to A14G A16G G19U A24U A39G, 0.01; to C13U G29A C31A C37U, 0.06.
The result for A14C G29U G33A A39G reads 0.02; that for A14C A16U C46G, 0.02; that for C13G U28G G29A G33U C37U, 0.01.
As to C13U G17A U28A A41G C45G, the self-cleavage turned out to be 0.03.
The result for A14G A39G C42U reads 0.21.
The result for C13G U20C G35U reads 0.62; that for A14U C18A G33C U34G C46G, 0.08; that for A14C U32G A41C U43G, 0.1.
To A14G C42G U43A belongs 0; to C13U U28G U34G C37G, 0.07.
On to A14G C23U G29C, for which the self-cleavage is 0.35.
The result for C13U A16C A26C C31A reads 0; that for A14G U20A C31U G33A C46A, 0.03; that for A14U U28G G36U, 0.04.
To C15A A16G G19A C42A belongs 0.03; to C13U G27U G29U, 0.21.
The result for C15A A24G G44A reads 0.14.
Regarding A14C A26C U32A C37A U38C A39C, the self-cleavage is 0.05.
Consider A14C G17C C31G C46A, for which the self-cleavage was 0.
The result for C13U G29C C37U U38C reads 0.03; that for A14C A24G C42G, 0.07.
The result for A14U U20C C37U reads 0.02; that for A14U C18A A25U G33A A39G, 0.04.
To A14U G19C A39G belongs 0.06.
As to A14G C37U G40A, the self-cleavage turned out to be 0.04.
The result for C13G G33U C42G reads 0.02; that for C13U A14G C18G G40A G44C, 0.01.
To C13U G17U A25U belongs 0.03; to A14U G19U C23U, 0.86; to A14C G22C U28A, 0.1.
To C13U G29A G40C belongs 0.01; to A14U C15G C46A, 0.02; to C13G U20G U34A, 0.07.
As to C13U G27A A39U, the self-cleavage was 0.09.
The result for A14U U20C C31G C42U reads 0.07; that for A14C A24C G40C, 0.01.
The result for C13U A26G U34C U38A reads 0; that for A14G G27A C31G A39C, 0.02; that for C13U G30A G33C, 0.03.
Regarding A14U G30U G33A G36C, the self-cleavage is 0.1.
To A14G A26U G33U belongs 0.01; to C13U C31G C46G, 0.07.
To A14C G30U C37A C45G belongs 0.24; to A14G G17A C37G, 0.05.
The result for C13U G19A C31U reads 0.02; that for A14U G17U G19C, 0.22.
With A14C U38C C45G, the self-cleavage came out at 0.26.
To A14G G19U C46G belongs 0.11.
The result for A14U U34G U38A reads 0.42.
With C13U A16G C45U C46U, the self-cleavage is 0.02.
The result for C13G G36A A41G reads 0.02.
Turning to A14U U20C A25C C37A, the self-cleavage turned out to be 0.03.
To C13U G19C A41G C42G belongs 0.57; to A14G G21A G35U U43A, 0; to A14C A26U A39G, 0.04.
To A14C G29C U34C belongs 0; to A14G A25C G44U, 0.03.
To A14U A24C G44U belongs 0.02.
In the case of C13G U28C G30C U38C, the self-cleavage amounted to 0.13.
To C13U G36C C37A U38A belongs 0.01; to A14G G30U G40C, 0.06; to C13G G35A C45U, 0.08.
The result for C13U A25G C42U reads 0.09.
On to A14C G19A C45A, for which the self-cleavage was 0.02.
The result for C13U U28A U32A G40A G44A reads 0.02; that for A14G G36U U38G G40A C42A G44A, 0.02; that for A14G G27C U28G, 0.5.
To A14C C15A G40U belongs 0.02; to C13U C15A G19A U38A, 0.08.
The result for C13G U20C U28A C31G A39G reads 0.07.
As to C13U A14C G22U, the self-cleavage is 0.17.
To C15A A25C U32G C45U C46U belongs 0.02; to C13U G29A C37G, 0.03; to A14G C23A U43C, 0.14.
To A14G A24C A25C belongs 0.04.
The result for A14U G21A G22U A25C reads 0.2; that for A14C G22C U32A, 0.02; that for C13U G35C G44C, 0.13.
In the case of C13U A14U G17A G35A, the self-cleavage was 0.02.
The result for A14U C15A G17U G22C reads 0.02; that for A14G G19A A25U G27C, 0.62.
The result for A14U C42G U43C reads 0.01.
The result for C15A A41C C45U reads 0.02.
As for A14U G21C C23U G44A, the self-cleavage worked out at 0.03.
The result for C13G U28C C45U C46U reads 0.11; that for A14G C15U G19C A26G A41U, 0.05.
In the case of C13U G21A G35U A39U, the self-cleavage was 0.32.
To A14C G27A U34A belongs 0.03; to A14U A26U G33A, 0.18; to C13U A26G G33A A41U, 0.01.
To A14G C23U U28A G35A A41C C46A belongs 0.01; to A14U G21A A39C, 0.17.
To C13G U34G G40A belongs 0.
As for A14C G35C C37A C45A C46A, the self-cleavage worked out at 0.01.
To A14C G21C C23A A25G belongs 0.03; to A14U C23A C46U, 0.6; to A14G G21C A24C G35U, 0.08.
To C13G U20A G27A G29U C31A belongs 0.05; to A14G A24C G44A, 0.08; to A14G G19A G36U, 0.01.
To C13U U34C G44A belongs 0.07; to A14G G21C G36C A39U, 0.05; to C15A A39C G44A, 0.04.
For A14U A16U C23U G33U, the self-cleavage came out at 0.06.
The result for A14U U20A G29U G33U reads 0.17.
The result for A14C C15U G30A G36C C46A reads 0.02; that for A14U A16G U20A, 0.05; that for A14G C23A U28G U38G, 0.01.
To A14U G30A U34A belongs 0.48; to A14C C18A U43A, 0.01; to C13U G17A G30U U34A, 0.02.
With C13U G19U A25C C31U C37G, the self-cleavage was 0.01.
To C15A A26C U34G belongs 0.03.
